# Assay results from PubChem BioAssay AID2147 (National Center for Advancing Translational Sciences (NCATS), 2009).
# About 3,600 (1.6%) of roughly 230,000 compounds were called active. Inconclusive means that the source gave no clear call. Such entries were picked first, then a sample of the others. Calls come from the whole dose curve; as a rule, active = well fitted inhibition curve with a large enough effect (not every such curve was filed as active); inconclusive = small, poorly fitted or top-dose-only effect, or another doubt; inactive = no such curve, though single readings can be large or run the other way. Potencies of inconclusive entries are doubtful fits and often do not repeat. Some compounds were tested as several samples or in several runs, with calls that do not always agree.
# Target: Lysine-specific demethylase 4E (Homo sapiens) (UniProt B2RXH2)
# Assay: qHTS Assay for Inhibitors of Human Jumonji Domain Containing 2E (JMJD2E)
# Conditions: JMJD2E catalytic domain, FDH-coupled NADH fluorescence (FDH is formaldehyde dehydrogenase); series mostly up to 57.1 µM; activity change, negative = inhibition: at the top concentration
# Source text: Assay Provider: Structural Genomics Consortium [SGC] Screening Center PI: Austin, C.P. Screening Center: NIH Chemical Genomics Center [NCGC] The fine interplay among methylation states of several lysine residues on the tails of histone proteins is a major determinant of the transcriptional state of the associated DNA coding regions and is commonly referred to as the histone code. Histone lysine demethylases catalyze the removal of methyl groups from methylated lysine sidechains on histones H3 and H4, thus antagonizing the reactions catalyzed by histone lysine methyltransferases. […] In search for novel inhibitors of JMJD2E demethylase, a member of the largest set of histone demethylases belonging to the Fe(II) and 2-oxoglutarate oxygenase (2OG) superfamily, we performed a quantitative high-throughput screen (Inglese 2006) by using an assay which utilizes a trimethylated peptide substrate corresponding to a fragment of histone H3 (sequence ARKme3STGGK) with detection of the formaldehyde co-product in real time by a formaldehyde dehydrogenase (FDH) coupled reaction. FDH catalyzes oxidation of formaldehyde to formic acid with the concomitant reduction of the non-fluorescent beta-nicotinamide adenine dinucleotide hydrate (NAD+) cofactor to the fluorescent NADH co-product. References: Inglese, J., Auld, D., Jadhav, A., Johnson, R., Simeonov, A., Yasgar, A., Zheng, W. and Austin, C. Proc Natl Acad Sci USA 2006, 103, 11473-11478. N. R. Rose, S. S. Ng, J. Mecinovic, B. M. Lienard, S. H. Bello, Z. Sun, M. A. McDonough, U. Oppermann and C. J. Schofield, J Med Chem, 2008, 51, 7053-7056. Sakurai, M., Rose, N., Schultz, L., Quinn, A., Jadhav, A., Ng, S., Oppermann, U., Schofield, C.J. and Simeonov, A. Mol BioSystems 2009, in press. S. Michael, D. Auld, C. Klumpp, A. Jadhav, W. Zheng, N. Thorne, C. Austin, J. Inglese and A. Simeonov, Assay Drug Dev Technol, 2008, 6, 637-657.
# Reagents and Controls: Ferrous ammonium sulfate, (+)-sodium L-ascorbate, beta-nicotinamide adenine dinucleotide hydrate (NAD+), Tween-20, formaldehyde dehydrogenase from P. putida (FDH), and disodium 2-oxoglutarate were from Sigma (St. Louis, MO). Black solid-bottom 384-well or 1,536-well assay plates were from Greiner Bio-One (Monroe, NC). Enzyme was supplied by Prof. Udo Oppermann, SGC-Oxford. The catalytic domain of human JMJD2E (residues 1-337) was produced as an N-terminally His6-tagged protein in E. coli, and purified by Ni-affinity chromatography and size-exclusion chromatography, and stored in HEPES 50 mM/ NaCl 500 mM pH 7.5, as reported in Rose 2008. The trimethylated histone peptide substrate ARK(me3)STGGK was synthesized and HPLC-purified by the Tufts University Core Facility (Boston, MA). Substrate solution (Sakurai 2009) contained 50 uM ARK(me3)STGGK, 0.00025 U/uL FDH, 50 uM 2-oxoglutarate, 250 uM NAD+, 1 mM ascorbate, and 10 uM ferrous ammonium sulfate. Controls and plate map: Buffer (150 mM HEPES pH 7.5 containing 0.01% Tween-20) in columns 3 and 4 as negative control (no enzyme) and 100 nM JMJD2E final concentration in columns 1,2, and 5-48. Assay Steps: Enzyme and buffer solutions (3 uL) were dispensed into a 1,536-well Greiner black solid-bottom assay plate. The library compounds (23 nL) were transferred using a Kalypsys pintool equipped with 1,536-pin array. The plate was incubated at room temperature (15 min), and then a 1 uL aliquot of substrate solution was added to initiate the reaction. The plate was transferred to ViewLux imager where an initial reading using standard UV optics (Ex 340 nm, Em 450 nm) was obtained. The plate was then removed from the reader, incubated for 30 minutes at room temperature, and returned to the reader for a second fluorescence reading. A fully automated robotic screening system (Kalypsys Inc, San diego, CA) was used to perform the above steps as described previously (Michael 2008). […]
# Note: nearly all actives have a fitted effect of over 50% in size.
# Potency is the fitted concentration of half-maximal effect; tags give direction and shape of the fitted curve.
# 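Throughout, for activity change, negative = inhibition: 0% = wells with enzyme and -100% = buffer wells without enzyme.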
# UniProt B2RXH2, sequence (B2RXH2 whole entry, looked up, the tested form may be a part): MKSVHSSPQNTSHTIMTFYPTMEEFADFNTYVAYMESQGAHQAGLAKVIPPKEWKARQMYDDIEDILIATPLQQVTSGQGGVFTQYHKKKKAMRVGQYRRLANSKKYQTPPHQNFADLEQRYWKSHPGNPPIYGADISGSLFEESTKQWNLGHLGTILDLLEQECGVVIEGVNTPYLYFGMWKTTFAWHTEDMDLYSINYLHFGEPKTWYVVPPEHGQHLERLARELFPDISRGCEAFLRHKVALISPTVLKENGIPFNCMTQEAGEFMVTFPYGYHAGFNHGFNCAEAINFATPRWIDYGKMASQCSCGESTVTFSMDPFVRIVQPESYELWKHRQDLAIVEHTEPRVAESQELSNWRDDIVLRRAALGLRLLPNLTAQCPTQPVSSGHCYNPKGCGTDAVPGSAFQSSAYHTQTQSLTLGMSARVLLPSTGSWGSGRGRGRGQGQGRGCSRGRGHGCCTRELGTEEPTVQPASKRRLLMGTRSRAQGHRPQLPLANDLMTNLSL
Structure (SMILES),"activity change, negative = inhibition",Potency
COc1ccc(/C=N/NC(=O)Cc2n[nH]c(=O)[nH]c2=O)cc1,inactive: -5.52%,
O=C(NCc1ccncc1)c1cc2ccccc2nc1Cl,inactive: -7.63%,
CC(C)CNc1oc(-c2ccccc2Cl)nc1C#N,,"inconclusive: 28.2 µM [inhibitor, partial curve]"
COc1cccc(C(=O)N2CCN(C3CCN(Cc4ccccc4)CC3)CC2)c1,,"inconclusive: 28.2 µM [inhibitor, single point]"
CC(C)CCCC(C)C1CCC2C3=CC[C@@H]4CC(O)CC[C@@]4(C)C3CC[C@]21C (stereo partly drawn),inactive: -1.83%,
CCN(CC)C(=O)c1sc2nc(-c3ccc(OC)cc3)cn2c1C,inactive: 10.1%,
O=c1oc2cc(O)ccc2cc1-c1nc2c(s1)CCc1ccccc1-2,,"inconclusive: 15.8 µM [inhibitor, partial curve]"
CC(O)CN1CC(O)=C(c2nc3ccccc3s2)C1=N (stereo not drawn),,"inconclusive: 35.5 µM [inhibitor, single point]"
COc1ccc(-c2csc3nc(-c4cccnc4)nc(N4CCC(C(N)=O)CC4)c23)cc1OC,,"inconclusive: 28.2 µM [inhibitor, single point]"
Cc1ccc2[nH]c3c(c2c1)SC(C)(C)CC3=O,,"inconclusive: 28.2 µM [inhibitor, partial curve]"
C=CCn1c(-c2ccccc2)n[nH]c1=S,inactive: 7.08%,
COc1c(O)cccc1/C=N/NC(=O)Cn1ccnc1C,,active: 10 µM
COc1cc(NC(=O)c2cc3nc(C)cc(C)n3n2)c(OC)cc1Cl,,"inconclusive: 17.8 µM [inhibitor, partial curve]"
CC(=O)Oc1ccc(C(=O)[C@H]2[C@H]3C(=O)N(c4ccc(C)cc4C)C(=O)[C@H]3[C@@H]3C=CC=NN32)cc1,,"inconclusive: 3.55 µM [inhibitor, full curve]"
Cc1ccc2sc3ccc(NC(=O)c4ccccc4Cl)cc3c(=O)c2c1,,"inconclusive: 35.5 µM [inhibitor, single point]"
CCCS(=O)(=O)N1CCN(Cc2ccccc2C(F)(F)F)CC1,,"inconclusive: 28.2 µM [inhibitor, single point]"
COC(=O)c1sc2ccccc2c1NC(=O)c1ccc(S(=O)(=O)N2CCC(C)CC2)cc1,,"inconclusive: 28.2 µM [inhibitor, single point]"
CC(C)NC(=O)/C(C#N)=C\c1ccc(N(C)C)o1,,"inconclusive: 31.6 µM [inhibitor, partial curve]"
COC(=O)[C@@H](NC(=O)O[C@@H]1C(=O)c2cc(Br)ccc2O[C@H]1c1cccc(OC)c1)C(C)C,,"inconclusive: 25.1 µM [inhibitor, single point]"
COc1ccc(C(=O)/C=C/c2cc(C(=O)O)cc3c2OCOC3)c(O)c1,inactive: -10.8%,
Cn1ccc2cc3c(cc21)CCN3C(=O)Nc1cccnc1,,active: 35.5 µM
Nc1nnc(CC(=O)N/N=C/c2ccc(-c3ccc(F)cc3)o2)s1,,"inconclusive: 28.2 µM [inhibitor, single point]"
COC(=O)[C@@]1(Cc2ccc(OC)cc2)[C@H]2c3cc(C(=O)N4CCCC4)n(Cc4ccc(C)c(F)c4F)c3C[C@H]2CN1C(=O)c1ccccc1,,"inconclusive: 39.8 µM [inhibitor, single point]"
Cc1ccc(-c2cn3nc(-c4ccccc4)c(-c4ccccc4)nc3n2)cc1,,"inconclusive: 39.8 µM [inhibitor, single point]"
COc1cccc(/C=N/NC(=O)CNC(=O)c2ccco2)c1O,,active: 14.1 µM

Structure (SMILES),"activity change, negative = inhibition",Potency
COc1cc(OC)c(C(=O)OCC(=O)NCCc2ccccc2)cc1OC,inactive: -18.8%,
Cc1[nH]n(-c2ccc([N+](=O)[O-])cc2)c(=O)c1C=NCC1CCCO1 (stereo not drawn),inactive: -1.73%,
CCOC(=O)c1nc(Nc2ccc(C(C)=O)cc2)c2ccccc2n1,,"inconclusive: 35.5 µM [inhibitor, single point]"
COc1cccc(/C=N/Nc2ncnc3c2ncn3Cc2ccccc2)c1O,,"inconclusive: 31.6 µM [inhibitor, single point]"
CCCn1cc(SCC(=O)NCC2CCCO2)c2ccccc21 (stereo not drawn),inactive: 3.74%,
CC(C)(C)C(=O)Nc1ccc2oc(-c3cc(F)c(F)cc3Cl)nc2c1,,"inconclusive: 25.1 µM [inhibitor, partial curve]"
Cc1cc(C(=O)CSc2nnc(-c3ccco3)o2)c(C)n1Cc1ccco1,inactive: -3.22%,
COc1ccc(CCN2CC34C=CC(O3)C(C(=O)NCc3ccccc3)C4C2=O)cc1OC (stereo not drawn),inactive: 0.499%,
CC1(C)CC(=O)C2=C(C1)OC(N)=C(C#N)C2c1ccoc1 (stereo not drawn),inactive: -11.7%,
O=C(CC(SCCO)c1ccc2c(c1)OCO2)c1ccco1 (stereo not drawn),,"inconclusive: 28.2 µM [inhibitor, single point]"
COCCNc1nc(-c2ccccc2C)nc2ccccc12,,"inconclusive: 35.5 µM [inhibitor, single point]"
O=C1CCC(C(=O)NCc2cccnc2)N1 (stereo not drawn),inactive: -3.04%,
Cc1ccc(C)n1N1C(=O)/C(=C\c2ccc(Cl)cc2)SC1=S,,"inconclusive: 39.8 µM [inhibitor, single point]"
COc1ccc(N(C(=O)c2ccncc2)S(=O)(=O)c2cccs2)cc1,,"inconclusive: 25.1 µM [inhibitor, single point]"
COC(=O)c1c(N)sc2c1CCN(c1ncc(C(F)(F)F)cc1Cl)C2,,"inconclusive: 39.8 µM [inhibitor, single point]"
Cc1cc(C)nc(SCc2ccc(C(=O)N/N=C/c3ccc(C(=O)O)cc3)cc2)n1,inactive: -4.14%,
O=C(CSc1ccc(-c2ccco2)nn1)c1ccccc1,,"inconclusive: 39.8 µM [inhibitor, single point]"
Cc1ccc2[nH]c(=O)c(CN(CC3CCCO3)C(=O)c3ccncc3)cc2c1 (stereo not drawn),,"inconclusive: 28.2 µM [inhibitor, partial curve]"
CCn1cc(C(=O)NCc2ccco2)c(=O)c2cc(S(=O)(=O)N3CCc4ccccc4C3)ccc21,,"inconclusive: 35.5 µM [inhibitor, single point]"
Brc1ccc2c(c1)OCCOCCOc1cc(Br)ccc1OCCOCCOCCO2,inactive: 5.02%,
O=C(NCc1ccc(Cl)cc1)C1CCN(S(=O)(=O)c2cc([N+](=O)[O-])ccc2Cl)CC1,inactive: -1.83%,
CCC(=O)Nc1cccc(-c2cn3cccc(C)c3n2)c1,,"inconclusive: 25.1 µM [inhibitor, partial curve]"
O=C(NNC(=O)c1cc2cc3ccccc3nc2s1)c1cccc(Cl)c1,,"inconclusive: 20 µM [inhibitor, single point]"
Cc1ccsc1/C=N/n1c(-c2cccnc2)n[nH]c1=S,inactive: -4.5%,
CSc1scc2c1-c1nc(SCC(=O)C(C)(C)C)ncc1CC2,,"inconclusive: 20 µM [inhibitor, partial curve]"

Structure (SMILES),"activity change, negative = inhibition",Potency
CSc1nnc(-c2ccc(S(=O)(=O)N3CCOCC3)cc2)n1CC1CCCO1 (stereo not drawn),,"inconclusive: 35.5 µM [inhibitor, partial curve]"
CCOc1ccc(NC(=O)CSc2nc3ccccc3c(=O)n2CCCC(=O)N2CCCC2)cc1,inactive: -2.73%,
c1ccc(CCn2nnnc2CN2CCN(C3CCCC3)CC2)cc1,,"inconclusive: 39.8 µM [inhibitor, single point]"
CCNC(=S)Nc1cccc(F)c1C,inactive: 8.12%,
COC(=O)c1[nH]c2cccc(OC)c2c1NC(=O)CCN1CCN(c2ccccc2F)CC1,,"inconclusive: 25.1 µM [inhibitor, partial curve]"
COC(=O)c1cc(OC)c(OC)cc1NC(=O)c1c(-c2ccccc2Cl)noc1C,,"inconclusive: 39.8 µM [inhibitor, single point]"
CCn1c(C)nc2cc(C(=O)OC)ccc21,,"inconclusive: 20 µM [inhibitor, single point]"
Cc1cc(N2CCCN(C)CC2)nc2cc(Cl)ccc12,,"inconclusive: 25.1 µM [inhibitor, single point]"
O=C(Nc1ccc(S(=O)(=O)NCCc2ccccc2)cc1)c1ccc(Br)o1,,"inconclusive: 39.8 µM [inhibitor, single point]"
COc1nccnc1NS(=O)(=O)c1ccc(N/C=C2\CCCCC2=O)cc1,inactive: -20.6%,
O=C(O)CCC(=O)NC1CCCCCCC1,inactive: -1.33%,
O=C(Nc1nc(=O)c2ccccc2s1)c1ccc(F)cc1,,"inconclusive: 39.8 µM [inhibitor, single point]"
COc1ccc(CCNC(=O)C2CCN(S(=O)(=O)N3CCCCC3)CC2)cc1OC,,"inconclusive: 35.5 µM [inhibitor, single point]"
O=C1c2sc3nc4ccccc4n3c2C(=O)N1c1ccccc1Cl,,"inconclusive: 31.6 µM [inhibitor, single point]"
CCOc1cc(/C=C(\CC(=O)O)c2nc3ccccc3s2)ccc1OC,,"inconclusive: 25.1 µM [inhibitor, partial curve]"
CCN(CC)S(=O)(=O)c1ccc(N2CCCC2)c(NC(=O)c2ccc(OC)cc2OC)c1,inactive: -0.365%,
Cn1c2ccccc2n2c(=O)c(=O)n(CC(=O)N3CCCc4ccccc43)nc12,,"inconclusive: 28.2 µM [inhibitor, single point]"
Cc1ccc(CNc2ccc3c(c2)OCO3)cc1,,"inconclusive: 39.8 µM [inhibitor, single point]"
N#CC/C(N)=N/NC(=O)CCCNc1ncc(C(F)(F)F)cc1Cl,,"inconclusive: 25.1 µM [inhibitor, single point]"
CC1CCCC(C)N1C(=O)CSc1nnc(-c2c[nH]c3ccccc23)o1 (stereo not drawn),inactive: 1.26%,
CCOC(=O)c1c(C)n(C)c2ccc(O)c(CN3CCC(C)CC3)c12,inactive: 0.914%,
O=C(CSc1nnc(-c2ccncc2)o1)c1ccc2c(c1)OCCO2,inactive: -15.1%,
c1ccc(CC2CCN(c3nc4ccccc4n4cnnc34)CC2)cc1,,"inconclusive: 35.5 µM [inhibitor, single point]"
